# Experimental data taken from the supplement of paper PMC8728848.
# This is one part of the list.
# Tests used:
# Experiment in all cases: glycan array binding signal (z-score within array); higher = stronger binding
# Settings in all cases: glycan notation: IUPAC condensed, linker removed
# [1] = target: Gal(b1-4)GlcNAc(b1-6)GalNAc
# In short: (§1)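 Negative Z-scores can be read as non-binding. The Z-score is calculated within each array and then averaged across arrays of one protein sequence at different concentrations or buffers and across linkers. Arrays, 3228 in all, were curated from the Consortium for Functional Glycomics database and kept only where the protein sequence was available.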
# [2] = target: Gal(b1-4)GlcNAc(b1-6)[Gal(b1-3)]GalNAc
# In short: as §1
# [3] = target: Gal(b1-4)GlcNAc(b1-6)[Gal(b1-4)GlcNAc(b1-3)]GalNAc
# In short: as §1
# [4] = target: Gal(b1-4)GlcNAc6P
# In short: as §1
# [5] = target: Gal(b1-6)Gal
# In short: as §1
# [6] = target: Gal3S(b1-3)GalNAc
# In short: as §1
# [7] = target: Gal3S(b1-3)GlcNAc
# In short: as §1
# [8] = target: Gal3S(b1-3)[Fuc(a1-4)]GlcNAc
# In short: as §1
# [9] = target: Gal3S(b1-4)Glc
# In short: as §1
# [10] = target: Gal3S(b1-4)Glc6S
# In short: as §1
# [11] = target: Gal3S(b1-4)GlcNAc
# In short: as §1
# [12] = target: Gal3S(b1-4)[Fuc(a1-3)]Glc6S
# In short: as §1
# [13] = target: Gal3S(b1-4)[Fuc(a1-3)]GlcNAc
# In short: as §1
# [14] = target: Gal3S(b1-4)[Fuc(a1-3)]GlcNAc6S
# In short: as §1
# [15] = target: Gal3S4S(b1-4)GlcNAc
# In short: as §1
# [16] = target: Gal3S6S(b1-4)GlcNAc
# In short: as §1
# [17] = target: Gal3S6S(b1-4)GlcNAc6S
# In short: as §1
# [18] = target: Gal4S(b1-4)GlcNAc
# In short: as §1
# [19] = target: Gal4S6S(b1-4)GlcNAc
# In short: as §1
# [20] = target: Gal6P(b1-4)GlcNAc
# In short: as §1
# [21] = target: Gal6S(b1-3)GlcNAc
# In short: as §1
# [22] = target: Gal6S(b1-3)GlcNAc6S
# In short: as §1
# [23] = target: Gal6S(b1-4)Glc
# In short: as §1
# [24] = target: Gal6S(b1-4)Glc6S
# In short: as §1
# [25] = target: Gal6S(b1-4)GlcNAc
# In short: as §1
# [26] = target: Gal6S(b1-4)GlcNAc6S
# In short: as §1
# [27] = target: GalNAc(a1-3)Gal
# In short: as §1
# [28] = target: GalNAc(a1-3)GalNAc
# In short: as §1
# [29] = target: GalNAc(a1-3)GalNAc(b1-3)Gal(a1-4)Gal(b1-4)Glc
# In short: as §1
# [30] = target: GalNAc(a1-3)GalNAc(b1-3)Gal(a1-4)Gal(b1-4)GlcNAc
# In short: as §1
# [31] = target: GalNAc(b1-3)Gal
# In short: as §1
# [32] = target: GalNAc(b1-3)Gal(a1-4)Gal(b1-4)GlcNAc
# In short: as §1
# [33] = target: GalNAc(b1-3)Gal(a1-4)Gal(b1-4)GlcNAc(b1-3)Gal(b1-4)Glc
# In short: as §1
# [34] = target: GalNAc(b1-3)Gal(a1-6)Gal(b1-4)Glc
# In short: as §1
# [35] = target: GalNAc(b1-3)GalNAc
# In short: as §1
# [36] = target: GalNAc(b1-3)GlcNAc
# In short: as §1
# [37] = target: GalNAc(b1-4)Gal(b1-4)Glc
# In short: as §1
# [38] = target: GalNAc(b1-4)GlcNAc
# In short: as §1
binder,measurement,setting,value
Clone730PsrP (Streptococcus pneumoniae) (protein) MDHHHHHHHHHHASENLYFQGAMVVGSQTAAATEATAKKVEEDRKKPASDYVASVTNVNLQSYAKRRKRSVDSIEQLLASIKNAAVFSGNTIVNGAPAINASLNIAKSETKVYTGEGVDSVYRVPIYYKLKVTNDGSKLTFTYTVTYVNPKTNDLGNISSMRPGYSIYNSGTSTQTMLTLGSDLGKPSGVKNYITDKNGRQVLSYNTSTMTTQGSGYTWGNGAQMNGFFAKKGYGLTSSWTVPITGTDTSFTFTPYAARTDRIGINYFNGGGKVVESSTT,glycan array binding signal (z-score),[1],0.015
same,glycan array binding signal (z-score),[2],0.074
same,glycan array binding signal (z-score),[3],-0.393
same,glycan array binding signal (z-score),[4],0.795
same,glycan array binding signal (z-score),[5],-0.252
same,glycan array binding signal (z-score),[6],1.07
same,glycan array binding signal (z-score),[7],0.574
same,glycan array binding signal (z-score),[8],0.322
same,glycan array binding signal (z-score),[9],-0.041
same,glycan array binding signal (z-score),[10],0.397
same,glycan array binding signal (z-score),[11],0.189
same,glycan array binding signal (z-score),[12],-0.126
same,glycan array binding signal (z-score),[13],0.82
same,glycan array binding signal (z-score),[14],1.7
same,glycan array binding signal (z-score),[15],1.08
same,glycan array binding signal (z-score),[16],0.158
same,glycan array binding signal (z-score),[17],-0.38
same,glycan array binding signal (z-score),[18],-0.521
same,glycan array binding signal (z-score),[19],-0.324
same,glycan array binding signal (z-score),[20],-0.387
same,glycan array binding signal (z-score),[21],-0.528
same,glycan array binding signal (z-score),[22],-0.368
same,glycan array binding signal (z-score),[23],-0.331
same,glycan array binding signal (z-score),[24],0.088
same,glycan array binding signal (z-score),[25],-0.403
same,glycan array binding signal (z-score),[26],-0.591
same,glycan array binding signal (z-score),[27],0.012
same,glycan array binding signal (z-score),[28],-0.485
same,glycan array binding signal (z-score),[29],-0.535
same,glycan array binding signal (z-score),[30],-0.218
same,glycan array binding signal (z-score),[31],-0.385
same,glycan array binding signal (z-score),[32],0.79
same,glycan array binding signal (z-score),[33],0.185
same,glycan array binding signal (z-score),[34],0.354
same,glycan array binding signal (z-score),[35],-0.384
same,glycan array binding signal (z-score),[36],0.15
same,glycan array binding signal (z-score),[37],1.39
same,glycan array binding signal (z-score),[38],0.829
